Over roughly 33,000 sequences, “E-score (-0.5 to 0.5)” has its median near -0.01; the highest 2% begin near 0.26. Some of the results follow.
Biological target: Ste12 (UniProt P13574)
Test: PBM E-score (8-mer binding enrichment) (E-score (-0.5 to 0.5)); higher = stronger / more preferred TF binding; most listed sequences are background and not binding sites
Conditions: protein concentration: 200 nM; construct: GST-DNA-binding domain
Experimental: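 Universal 'all 10-mer' protein binding microarrays (Agilent AMADID 015681) probed with GST-tagged S. cerevisiae TFs (full-length or DBD) made by in vitro transcription/translation (PURExpress), about 100-200 nM. Bound TF was detected with fluorescent anti-GST. Each ungapped 8-mer (which stands for itself and its reverse complement) is scored by the PBM enrichment score (E-score), a modified Wilcoxon-Mann-Whitney statistic from -0.5 to +0.5, computed with the Universal PBM Analysis Suite. Scale: above 0.35 generally sequence-specific binding.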

First: CAAGGCCA
Second: CGTGAGGC
The “PBM E-score” value of the first is lower: -0.0992 for the first, -0.0965 for the second.

First: ACGACTAA
Second: GCCAGCAA
The “PBM E-score” value of the first is lower: -0.226 for the first, -0.0826 for the second.

Compared with GGCGGACC, CCCGTTGA is lower in “PBM E-score” value: 0.0941 for the first, 0.0754 for the second.

Compared with CTAAACAC, TGGATACA is lower in “PBM E-score” value: 0.179 for the first, -0.0618 for the second.

Going from AAAGTAAG to CATCGGGC, the “PBM E-score” value rises from -0.0593 to -0.0339.

Compared with GTGGGAAC, GGCGCCAC is higher in “PBM E-score” value: -0.108 for the first, -0.0338 for the second.

Going from CAGCTTCC to CGCCGACG, the “PBM E-score” value rises from -0.147 to 0.0291.

First: ACACCCCC
Second: CATCGATA
The “PBM E-score” value of the first is lower: -0.282 for the first, 0.128 for the second.

Going from GCTGGTCC to AATATGTC, the “PBM E-score” value rises from -0.156 to 0.117.

Going from CGCGAGGA to ACTTGTAA, the “PBM E-score” value rises from -0.0823 to 0.0516.

Compared with AAATAAGC, ACGGTGGG is lower in “PBM E-score” value: 0.0762 for the first, -0.00172 for the second.

Going from ATCGTAAC to CGGTACCG, the “PBM E-score” value falls from -0.047 to -0.136.

First: GGCTTTTA
Second: GATTCCGC
The “PBM E-score” value of the first is lower: -0.058 for the first, 0.0216 for the second.

First: CACGGTCG
Second: TCTAGGCA
The “PBM E-score” value of the first is lower: -0.284 for the first, 0.0522 for the second.

Compared with CTGTCTAA, TCCAAGCA is lower in “PBM E-score” value: -0.0946 for the first, -0.16 for the second.

First: CCATTCGC
Second: TGTCGTAA
The “PBM E-score” value of the first is higher: 0.052 for the first, -0.0855 for the second.

First: CCCGTGTC
Second: CAGAGGAA
The “PBM E-score” value of the first is lower: -0.0536 for the first, 0.0502 for the second.

First: CGAAAAGC
Second: ATTTAGTC
The “PBM E-score” value of the first is higher: -0.0111 for the first, -0.0892 for the second.

Compared with GCCAACTA, AAGTCGCA is higher in “PBM E-score” value: -0.196 for the first, 0.0441 for the second.

Going from CCATAAGC to AATCGCGA, the “PBM E-score” value rises from -0.125 to 0.202.

First: CCGATCCG
Second: TATGTCAA
The “PBM E-score” value of the first is lower: -0.0912 for the first, 0.171 for the second.

Going from AGACGGCA to ATGGCGCC, the “PBM E-score” value falls from -0.13 to -0.254.

Compared with ATACCTCG, CCTATCGC is lower in “PBM E-score” value: 0.0226 for the first, -0.176 for the second.

Compared with AAGCGGGC, CAGACCAG is higher in “PBM E-score” value: -0.138 for the first, -0.0554 for the second.

First: CCTGTGCA
Second: AGACATTC
The “PBM E-score” value of the first is lower: -0.172 for the first, -0.105 for the second.

Compared with CCAAAGAA, GATTGACA is lower in “PBM E-score” value: 0.181 for the first, -0.0608 for the second.

Going from AGGGTCTG to AGTCTAAT, the “PBM E-score” value rises from -0.0534 to 0.00604.

Going from AGCCATCG to GACTGATC, the “PBM E-score” value rises from -0.208 to 0.0386.

Compared with AAGCCCGC, ACGAGCCA is higher in “PBM E-score” value: -0.0285 for the first, 0.0397 for the second.

Compared with GATTGACC, AGAGCGCC is higher in “PBM E-score” value: -0.0669 for the first, 0.0912 for the second.

First: AGTACCGA
Second: GCCACAAC
The “PBM E-score” value of the first is lower: 0.0869 for the first, 0.126 for the second.

First: CCACAGGC
Second: CACTGTAG
The “PBM E-score” value of the first is lower: -0.246 for the first, -0.049 for the second.

First: ACTCGACC
Second: ATAGATAA
The “PBM E-score” value of the first is lower: -0.0423 for the first, 0.159 for the second.

First: CCGGTAAA
Second: AAGAGAGC
The “PBM E-score” value of the first is higher: 0.115 for the first, -0.126 for the second.

Going from CAGCACTG to GGCAAGGA, the “PBM E-score” value falls from -0.00677 to -0.131.

Going from CATCATGA to ACGACTCC, the “PBM E-score” value falls from -0.0187 to -0.14.

First: AACCGCAG
Second: ACCGCTGC
The “PBM E-score” value of the first is lower: -0.122 for the first, -0.0433 for the second.

First: CATTGTAA
Second: CGTTCCTC
The “PBM E-score” value of the first is higher: 0.234 for the first, 0.00377 for the second.

Compared with AACCGAGG, CACTGTTA is higher in “PBM E-score” value: -0.115 for the first, -0.0596 for the second.

First: CCTAACGC
Second: CATCAGTA
The “PBM E-score” value of the first is higher: 0.0951 for the first, -0.0586 for the second.

Going from AGCTGAAT to CATTAACA, the “PBM E-score” value rises from -0.0624 to 0.209.

First: CGACTGAG
Second: AGTGGAAT
The “PBM E-score” value of the first is lower: -0.131 for the first, 0.00046 for the second.

First: CCCCGCCG
Second: GAGTTGTA
The “PBM E-score” value of the first is higher: 0.242 for the first, -0.0493 for the second.

First: ATAACTTA
Second: AAATTGTT
The “PBM E-score” value of the first is lower: 0.11 for the first, 0.186 for the second.

First: ATCTGCCA
Second: CTCGCTTA
The “PBM E-score” value of the first is lower: 0.00606 for the first, 0.134 for the second.

Going from CCACGCAC to ATATGGTC, the “PBM E-score” value rises from -0.0462 to -0.00502.

Going from CTGACCTA to GGAGGGCC, the “PBM E-score” value rises from -0.176 to -0.145.

Reference: the supplement of paper PMC3334620
